Assay results published in PubChem BioAssay AID1347165 (National Center for Advancing Translational Sciences (NCATS), 2019).
About 5,700 (2.6%) of roughly 220,000 compounds were called active. Inconclusive results, whose numbers are uncertain, are shown with a selection of clear calls. Calls follow the shape of the dose curve; as a rule, active = well fitted inhibition curve with a large enough effect; inconclusive = small, poorly fitted or top-dose-only effect; inactive = no such curve, though single readings can be large or run the other way. A potency beside an inconclusive call is a rough fit, not a confirmed value.

target: Lysine-specific demethylase 5B (Homo sapiens) (UniProt Q9UGL1); experiment: Primary screen for KDM5B Histone Demethylases FDH-coupled qHTS; conditions: FDH-coupled NADH fluorescence (FDH is formaldehyde dehydrogenase); activity change, negative = inhibition: at 57.7 µM (top of the series) unless noted; also: nearly all actives have a fitted effect of over 70% in size; as to activity change, negative = inhibition: 0% is about no effect
Sequence of UniProt Q9UGL1 (Q9UGL1 whole entry, looked up): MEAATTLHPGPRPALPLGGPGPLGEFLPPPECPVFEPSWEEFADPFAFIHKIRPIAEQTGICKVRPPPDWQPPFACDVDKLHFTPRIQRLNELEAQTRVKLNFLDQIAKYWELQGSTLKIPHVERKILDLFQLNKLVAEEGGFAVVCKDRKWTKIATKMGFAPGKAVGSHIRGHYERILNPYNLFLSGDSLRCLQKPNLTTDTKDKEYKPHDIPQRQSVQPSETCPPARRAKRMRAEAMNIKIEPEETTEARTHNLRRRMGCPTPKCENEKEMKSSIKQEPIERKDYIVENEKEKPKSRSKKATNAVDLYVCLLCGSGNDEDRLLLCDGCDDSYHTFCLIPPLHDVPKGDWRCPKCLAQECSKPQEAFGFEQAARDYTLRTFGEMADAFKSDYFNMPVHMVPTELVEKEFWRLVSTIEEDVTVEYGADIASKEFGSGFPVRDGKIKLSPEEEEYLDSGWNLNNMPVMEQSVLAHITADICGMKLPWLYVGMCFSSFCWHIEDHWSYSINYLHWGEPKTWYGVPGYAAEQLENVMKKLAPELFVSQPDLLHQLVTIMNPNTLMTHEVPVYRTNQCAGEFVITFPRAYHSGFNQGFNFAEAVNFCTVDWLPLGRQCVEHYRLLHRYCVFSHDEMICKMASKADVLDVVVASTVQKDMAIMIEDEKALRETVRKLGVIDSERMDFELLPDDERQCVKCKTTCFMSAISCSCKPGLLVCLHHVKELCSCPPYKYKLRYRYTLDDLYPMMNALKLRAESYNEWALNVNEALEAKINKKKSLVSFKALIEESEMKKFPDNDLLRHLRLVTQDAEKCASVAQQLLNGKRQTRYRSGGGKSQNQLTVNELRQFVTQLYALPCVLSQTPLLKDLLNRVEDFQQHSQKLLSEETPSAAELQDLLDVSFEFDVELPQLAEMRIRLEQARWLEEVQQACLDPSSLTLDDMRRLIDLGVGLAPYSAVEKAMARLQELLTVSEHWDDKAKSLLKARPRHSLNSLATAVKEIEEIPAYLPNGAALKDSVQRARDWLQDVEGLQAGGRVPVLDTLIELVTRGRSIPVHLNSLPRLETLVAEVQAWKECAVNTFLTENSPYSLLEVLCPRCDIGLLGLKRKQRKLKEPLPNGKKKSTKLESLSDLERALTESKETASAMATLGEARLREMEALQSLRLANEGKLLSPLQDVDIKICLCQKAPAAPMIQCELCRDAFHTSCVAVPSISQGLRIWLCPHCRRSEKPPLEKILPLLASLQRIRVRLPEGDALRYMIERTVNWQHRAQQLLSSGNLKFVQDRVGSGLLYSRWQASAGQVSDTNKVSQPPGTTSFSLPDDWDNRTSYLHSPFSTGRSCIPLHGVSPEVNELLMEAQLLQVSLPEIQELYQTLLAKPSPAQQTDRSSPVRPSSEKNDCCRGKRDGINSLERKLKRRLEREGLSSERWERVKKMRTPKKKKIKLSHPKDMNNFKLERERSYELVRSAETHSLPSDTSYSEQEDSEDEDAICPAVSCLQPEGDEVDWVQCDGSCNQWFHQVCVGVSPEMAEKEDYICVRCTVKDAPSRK
In short: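 Here, H3K4me3 peptide (12.5 µM in substrate mix) is demethylated by KDM5BΔAP, 200 nM final, after 10 min compound exposure. Formaldehyde product is coupled through FDH (0.25 U/mL in mix) to NADH fluorescence; 30-min ΔRFU feeds dose-response curves.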
Potency is read from the fitted curve at half-maximal effect; tags tell the direction and shape of the fitted curve.

| SMILES | Potency | activity change, negative = inhibition |
| --- | --- | --- |
| COc1ccc(-c2ccc3nc(-c4cccc(Cl)c4)oc3c2)c(OC)c1OC | active: 7.94 µM | – |
| COc1cc2[nH]c(=O)n(CCCC(=O)NCc3ccc(Cl)cc3)c(=O)c2cc1OC | inconclusive: 1.78 µM [inhibitor, full curve, poor fit] | – |
| CC(C)(C)C(=O)NCc1ccnc2[nH]ccc12 | inconclusive: 39.8 µM [inhibitor, partial curve, poor fit] | – |
| COc1ccccc1NC(=O)c1sc2nc(C)c(C(=O)Nc3ccc(C)cc3C)c(-c3cccs3)c2c1N | inconclusive: 35.5 µM [inhibitor, single point] | – |
| Cn1c(N2CCN(C(=O)C[C@H]3NC(=O)c4ccccc4NC3=O)CC2)nc2ccccc21 | – | inactive: 5.26% |
| O=C(Cc1nc(-c2c[nH]c(C(=O)N3CCCC3)c2)cs1)NCc1ccccc1 | – | inactive: 9.94% |
| COCCN1CCNc2cc(-c3ccc(Oc4ccccc4)cc3)ncc2C1 | inconclusive: 35.5 µM [inhibitor, partial curve, poor fit] | – |
| CCN1CCN(C(=O)Cn2c(C)ccc(NC(=O)Nc3ccc(C)cc3)c2=O)CC1 | inconclusive: 22.4 µM [inhibitor, partial curve, poor fit] | – |
| COc1ncc(-c2cc(C(=O)NCc3cnn(C)c3)c3c(c2)N(C)CCO3)cn1 | – | inactive: 7.15% [at 86.2 µM] |
| O=C1Nc2ccc(-c3ccccc3)cc2C(=O)N2CCN(C(=O)c3cccnc3)C[C@H]12 | inconclusive: 25.1 µM [inhibitor, partial curve] | – |
| O=S(=O)(Nc1nc2ccccc2nc1NC1CCCC1)c1ccc2c(c1)OCCO2 | inconclusive: 15.8 µM [inhibitor, partial curve, poor fit] | – |
| COc1ccc(S(=O)(=O)NCC(c2ccco2)N2CCN(c3ccccc3)CC2)cc1OC (stereo not given) | inconclusive: 15.8 µM [inhibitor, partial curve, poor fit] | – |
| Cc1cc(NC(=O)CN2CCN(c3nc(N4CCCC4)nc(N4CCCC4)n3)CC2)no1 | – | inactive: -0.495% |
| Cn1c(=O)c2ccnn2c2ccc(C(=O)Nc3ccc4c(c3)OCCO4)cc21 | inconclusive: 31.6 µM [inhibitor, single point] | – |
| CCCCCOC(=O)c1c(C)oc2c1cc(NS(=O)(=O)c1cccs1)c1ccccc12 | inconclusive: 25.1 µM [inhibitor, partial curve, poor fit] | – |
| CC(C)c1noc(-c2cccn3c(CNC(=O)c4cccc5[nH]ccc45)nnc23)n1 | inconclusive: 35.5 µM [inhibitor, partial curve, poor fit] | – |
| O=C(O)CCn1c(=O)c2cccn2c2cccnc21 | inconclusive: 31.6 µM [inhibitor, partial curve, poor fit] | – |
| CCOc1cc(C=O)c(Cl)cc1OC | – | inactive: 13.8% |
| Cc1cc(F)ccc1-c1[nH]nc2ncc(-c3ccc([S+](C)(=O)[O-])cc3)nc12 | active: 35.5 µM | – |
| COc1cccc(-c2ccc(NC(=O)C3CCCN(Cc4cnc(C)s4)C3)cc2)c1 (stereo not given) | – | inactive: 1.11% |
| O=S(=O)(NCc1csc(-c2cccs2)n1)c1ccc(Cl)cc1 | inconclusive: 28.2 µM [inhibitor, single point] | – |
| CC(=O)c1cccc(NC(=O)COC(=O)c2ccc(C3Nc4ccccc4S(=O)(=O)N3)cc2)c1 (stereo not given) | inconclusive: 25.1 µM [inhibitor, single point] | – |

| SMILES | Potency | activity change, negative = inhibition |
| --- | --- | --- |
| O=C(O)CCCC[C@@H]1SC[C@@H](NC(=O)c2ccccc2)[C@@H]1O | – | inactive: 7.73% |
| Cc1cccc(Nc2nnc(-c3ccc(C)c(S(=O)(=O)NCC4CCCO4)c3)c3ccccc23)c1 (stereo not given) | inconclusive: 25.1 µM [inhibitor, partial curve, poor fit] | – |
| O=C1CCCCCCCC(=O)OCCCCCCO1 | – | inactive: -4.07% |
| Cc1nc(NC(=O)c2cc3ccccc3o2)ccc1Br | inconclusive: 31.6 µM [inhibitor, single point] | – |
| CC(=O)c1c(C)[nH]c(-c2csc(NC3CCCCC3)n2)c1C | inconclusive: 39.8 µM [inhibitor, single point] | – |
| Nc1nccnc1C(=O)NCC1CCOC1 (stereo not given) | inconclusive: 25.1 µM [inhibitor, partial curve, poor fit] | – |
| CC(NC(=O)c1cc2ccccc2oc1=O)c1ccc(C(F)(F)F)cc1 (stereo not given) | inconclusive: 1.78 µM [inhibitor, full curve, poor fit] | – |
| CC(C)CCN1CCC2(COc3ccccc3C(=O)N2)C1 (stereo not given) | inconclusive: 25.1 µM [inhibitor, partial curve] | – |
| CCOC(=O)C1=C(C(Br)Br)NC(=O)NC1c1ccc2c(c1)OCO2 (stereo not given) | – | inactive: -35.5% |
| CCc1c(C)sc(NC(=O)C(F)(F)C(F)(F)C(F)(F)C(F)(F)F)c1C#N | inconclusive: 39.8 µM [inhibitor, single point] | – |
| COc1ccc(OC)c(NC(=O)C2CCN(S(=O)(=O)c3ccc4c(c3)CCCC(=O)N4)CC2)c1 | inconclusive: 15.8 µM [inhibitor, partial curve, poor fit] | – |
| Cc1cc(C)nc(NC(=NCCc2c[nH]c3ccc(Cl)cc23)NC(=O)c2ccccc2C)n1 | inconclusive: 3.55 µM [inhibitor, full curve, poor fit] | – |
| Cc1ccc(-c2cnc(-c3ccccc3C(=O)NCc3ccccc3)o2)cc1 | inconclusive: 25.1 µM [inhibitor, partial curve, poor fit] | – |
| COc1ccc(C(=O)N2CCC(N3C[C@H](O)C[C@H]3C(=O)NC3CCCCC3)CC2)cc1OC | – | inactive: -25.6% |
| COCC(C)n1c(C)cc(C(=O)Cn2cnc3scc(-c4ccc(C)cc4)c3c2=O)c1C (stereo not given) | inconclusive: 39.8 µM [inhibitor, single point] | – |
| C=Cc1ccc(Cn2nc(-c3ccc(C)cc3)ccc2=O)cc1 | inconclusive: 15.8 µM [inhibitor, partial curve, poor fit] | – |
| Cc1cccc(-n2cc(-c3ccccc3)c3c(NC4CCCC4)ncnc32)c1 | inconclusive: 14.1 µM [inhibitor, partial curve, poor fit] | – |
| COc1ccc(-c2ccc3nnc(CNC(=O)c4ccco4)n3n2)cc1 | active: 31.6 µM | – |
| CO[C@H]1[C@H](NC(=O)c2cnc3ccccc3c2)c2ccccc2C12CCNCC2 | inconclusive: 17.8 µM [inhibitor, partial curve] | – |
| O=C(CCc1ncc(-c2c(F)cccc2F)o1)Nc1ccc(F)cc1 | – | inactive: -11.6% |
| CCOc1ccc(-c2nc(SCC(=O)c3ccccc3)n[nH]2)cc1 | inconclusive: 28.2 µM [inhibitor, single point] | – |
| CCOc1ccccc1-c1nn2c(CN3CCCCC3)nnc2s1 | inconclusive: 20 µM [inhibitor, partial curve, poor fit] | – |

| SMILES | Potency | activity change, negative = inhibition |
| --- | --- | --- |
| Cn1nc(-c2ccccc2F)c2cc(C(=O)NCCc3ccc(Cl)cc3)sc21 | inconclusive: 22.4 µM [inhibitor, partial curve, poor fit] | – |
| NC(=O)[C@H](CC1CCCCC1)NC(=O)[C@@H]1CN(C(=O)Nc2ccccc2)CCN1C(=O)C1CCNCC1 | – | inactive: -2.05% |
| CC1=C[C@@H](CNS(=O)(=O)c2ccc(C#N)cc2)[C@H](C(C)C)C[C@H]1CC(=O)NCc1ccc(C#N)cc1 | inconclusive: 31.6 µM [inhibitor, partial curve, poor fit] | – |
| CCOC(=O)C1CCN(C(c2cccc(F)c2)c2c(O)cc(C)n(Cc3ccco3)c2=O)CC1 (stereo not given) | inconclusive: 44.7 µM [inhibitor, single point] | – |
| Cn1ncc2c(C(=O)NC3CC3)cc(-c3ccc(F)cc3)nc21 | active: 112 µM | – |
| N#Cc1cc2c(nc1N1CCN(C3CCCC3)C(CCO)C1)CCCC2 (stereo not given) | active: 28.2 µM | – |
| O=C(CSc1ncnc2ccccc12)N(C1CCCC1)C1CCS(=O)(=O)C1 (stereo not given) | – | inactive: 26.4% |
| Cc1onc(-c2ccccc2)c1C(=O)N1CCN(S(=O)(=O)c2ccc(Cl)cc2)CC1 | – | inactive: 1.31% |
| CCCn1c2ccccc2c2cnn(CC(=O)NCc3ccccc3Cl)c(=O)c21 | inconclusive: 12.6 µM [inhibitor, partial curve, poor fit] | – |
| O=C(Nc1cccc(Cl)c1)c1ccc2nc(CCc3ccccc3)oc2c1 | – | inconclusive: -31.9% [inhibitor] |
| COCCNC(=O)[C@@H]1C[C@H](Oc2cccnc2)CN1C(=O)CCc1c[nH]c2ccccc12 | inconclusive: 15.8 µM [inhibitor, partial curve, poor fit] | – |
| Cc1cc(OC(C)C(=O)NCCCN2CCOCC2)c2c(C)cc(=O)oc2c1 (stereo not given) | inconclusive: 22.4 µM [inhibitor, partial curve, poor fit] | – |
| COc1cc(CN(C)C2CCOc3ccccc32)ccc1F (stereo not given) | – | inactive: 3.84% [at 86.2 µM] |
| c1ccc(CNC2CCCCC2)cc1 | – | inactive: 19.7% |
| COc1cc(CNc2nc3c(C)cc(C)cc3s2)ccc1O | inconclusive: 39.8 µM [inhibitor, partial curve, poor fit] | – |
| O=C(Nc1cccc(C(F)(F)F)c1)N[C@H]1[C@H](O)[C@@H](N2CCCC2)[C@@H]2OC[C@H]1O2 | – | inactive: -27.9% [at 86.2 µM] |
| CNc1cccnc1OC1CCN(S(=O)(=O)Cc2ccccc2)C1 (stereo not given) | inconclusive: 14.1 µM [inhibitor, partial curve] | – |
| COc1ccc(-c2nc3c(c(=O)[nH]2)CCN(S(=O)(=O)c2cccc4cccnc24)C3)cc1 | inconclusive: 39.8 µM [inhibitor, single point] | – |
| COc1ccccc1Nc1sc(C(=O)c2ccc3c(c2)OCO3)c(N)c1S(=O)(=O)c1ccccc1 | inconclusive: 14.1 µM [inhibitor, partial curve, poor fit] | – |
| COc1ccc(-c2noc(-c3cccn3CC(=O)Nc3cc(C)ccc3OC)n2)cc1F | – | inactive: -11.4% |
| N#Cc1nc(-c2ccc(F)cc2)oc1N1CCN(C(=O)c2cccs2)CC1 | – | inactive: -9.4% |
